Measurements taken from the supplement of paper PMC6089552.
The campaign covered roughly 3,200 compounds. About 300 (9.4%) showed activity. This is a selection; strong and weak results do not stand in their true shares.

System: A673/TR/shEF
Assay: cell viability (LOESS-normalised, relative to median of negative controls) (log2 ratio); higher = more viable cells (less compound effect), active = hit call of the paper (over 3 MAD below the median)
Conditions: treatment time: 72 h
How it was run: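 A673/TR/shEF Ewing sarcoma cells were plated at 1,500 per well in 384-well plates and cultured with or without doxycycline, added 24 h before compounds, to induce EWS-FLI1 shRNA knockdown. Library compounds at two or more concentrations, alongside DMSO controls, were applied for three days. Cell viability was measured by CellTiter-Glo luminescence on an Envision reader. Readings were LOESS-corrected per plate, divided by the median of negative controls and log2-transformed, and hits were wells lying at least three median absolute deviations from the median of all screened wells.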

[1] = 0.25 µM, library screen: screen1, EWS-FLI1 expression: high (no doxycycline)
[2] = 0.25 µM, library screen: screen1, EWS-FLI1 expression: low (doxycycline-induced shRNA knockdown)
[3] = 2.5 µM, library screen: screen1, EWS-FLI1 expression: high (no doxycycline)
[4] = 2.5 µM, library screen: screen1, EWS-FLI1 expression: low (doxycycline-induced shRNA knockdown)
[5] = 0.25 µM, library screen: screen2, EWS-FLI1 expression: high (no doxycycline)
[6] = 0.25 µM, library screen: screen2, EWS-FLI1 expression: low (doxycycline-induced shRNA knockdown)
[7] = 2.5 µM, library screen: screen2, EWS-FLI1 expression: high (no doxycycline)
[8] = 2.5 µM, library screen: screen2, EWS-FLI1 expression: low (doxycycline-induced shRNA knockdown)
[9] = 0.103 µM, library screen: screen3, EWS-FLI1 expression: high (no doxycycline)
[10] = 0.103 µM, library screen: screen3, EWS-FLI1 expression: low (doxycycline-induced shRNA knockdown)
[11] = 0.308 µM, library screen: screen3, EWS-FLI1 expression: high (no doxycycline)
[12] = 0.308 µM, library screen: screen3, EWS-FLI1 expression: low (doxycycline-induced shRNA knockdown)
[13] = 0.926 µM, library screen: screen3, EWS-FLI1 expression: high (no doxycycline)
[14] = 0.926 µM, library screen: screen3, EWS-FLI1 expression: low (doxycycline-induced shRNA knockdown)
[15] = 2.8 µM, library screen: screen3, EWS-FLI1 expression: high (no doxycycline)
[16] = 2.8 µM, library screen: screen3, EWS-FLI1 expression: low (doxycycline-induced shRNA knockdown)
[17] = 8.3 µM, library screen: screen3, EWS-FLI1 expression: high (no doxycycline)
[18] = 8.3 µM, library screen: screen3, EWS-FLI1 expression: low (doxycycline-induced shRNA knockdown)
[19] = 25 µM, library screen: screen3, EWS-FLI1 expression: high (no doxycycline)
[20] = 25 µM, library screen: screen3, EWS-FLI1 expression: low (doxycycline-induced shRNA knockdown)

Measured: cell viability (log2)

Cc1sc2c(=O)n3c(nc2c1C(=O)NCCc1ccccc1)CCCCC3
inactive: [1] 0.129 | [2] 0.0568 | [3] 0.167 | [4] 0.136

OC[C@H]1NC[C@H](O)[C@@H](O)[C@@H]1O
inactive: [5] 0.273 | [6] 0.124 | [7] 0.177 | [8] 0.145

NC/C=C\C(=O)O
inactive: [5] 0.181 | [6] 0.112 | [7] 0.0617 | [8] 0.109

C=C[C@@](C)(O)CCC1C(=C)CCC2[C@@](C)(CO)CCC[C@]12C (some centres not stated)
inactive: [1] 0.118 | [2] -0.0475 | [3] 0.151 | [4] -0.0116

CC12CCC(CC1=O)C2(C)C (configuration not stated)
inactive: [1] 0.0703 | [2] 0.0317 | [3] 0.141 | [4] 0.0883

NC(N)=NC(=O)Cc1c(Cl)cccc1Cl
inactive: [5] 0.0785 | [6] 0.0403 | [7] 0.0739 | [8] 0.0584

C[C@](N)(Cc1ccc(O)c(O)c1)C(=O)O
inactive: [1] 0.132 | [2] 0.0321 | [5] 0.097 | [6] 0.0348 | [3] 0.129 | [4] 0.168 | [7] 0.129 | [8] 0.0838

c1cnc(N2CCN(Cc3ccc4c(c3)OCO4)CC2)nc1
inactive: [5] 0.227 | [6] 0.158 | [7] 0.183 | [8] 0.107

C#CCCCCCCCCCCCC(O)CC(O)COC(C)=O.C=CCCCCCCCCCCCC(O)CC(O)COC(C)=O (configuration not stated)
inactive: [1] 0.0598 | [2] 0.0749 | [3] 0.108 | [4] 0.0101

C=CC(C1=CC(=O)C(OC)=CC1=O)c1ccccc1 (configuration not stated)
inactive: [1] 0.0774 | [2] 0.000535 | [3] 0.158 | [4] 0.101

COC(=O)c1cc(=O)c(O)c2c(O)c(O)ccc2c1
inactive: [1] 0.103 | [2] 0.0315 | [3] 0.145 | [4] 0.0325

CCCCCCCCCC(=O)NC(CN1CCOCC1)C(O)c1ccccc1 (configuration not stated)
active: [5] -0.53 | [6] -0.533 | [7] -1.39 | [8] -2.57

C/C(=C\CO)CCC[C@H](C)CCC[C@H](C)CCCC(C)C
inactive: [1] 0.0657 | [2] 0.0273 | [3] 0.135 | [4] -0.104

Cc1c(O)c(C(=O)CC(C)C)c2oc3c(C(=O)CC(C)C)c(O)c(C)c(O)c3c2c1O
inactive: [1] 0.0407 | [2] 0.0843 | [3] 0.0935 | [4] 0.0892

CC(C)C(=O)Oc1ccc(CO)cc1[C@H](CCN(C(C)C)C(C)C)c1ccccc1
inactive: [9] 0.0458 | [10] 0.0263 | [11] 0.0469 | [12] 0.0512 | [13] 0.0969 | [14] 0.0713 | [15] 0.0716 | [16] 0.0429 | [17] 0.0271 | [18] 0.0627 | [19] 0.0496 | [20] 0.113

Cc1ccc(NC(=O)c2ccc(CN3CCN(C)CC3)cc2)cc1Nc1nccc(-c2cccnc2)n1
active: [19] -0.195

COc1cc2c(Nc3ccc(Br)cc3F)ncnc2cc1OCC1CCN(C)CC1
inactive: [9] -0.0043 | [10] 0.0398 | [11] -0.0447 | [12] 0.068 | [13] 0.0443 | [14] 0.0503 | [15] -0.0379 | [16] 0.00456 | [17] -0.00527 | [18] -0.0123 | [19] -0.0986 | [20] -0.0825

CC(=O)O[C@H]1CC[C@@]2(C)C(C[C@@H](OC(C)=O)[C@]3(C)C2CC[C@@]2(C)[C@H](c4ccoc4)OC(=O)[C@H]4O[C@]423)C1(C)C (some centres not stated)
inactive: [1] 0.0263 | [2] 0.146 | [3] 0.141 | [4] 0.119

CCOC(=O)O[C@]1(C(=O)OCCl)CC[C@H]2[C@@H]3CCC4=CC(=O)C=C[C@]4(C)[C@H]3[C@@H](O)C[C@@]21C
inactive: [9] 0.0687 | [10] 0.0505 | [11] 0.0534 | [12] 0.0845 | [13] 0.0173 | [14] 0.0991 | [15] 0.0681 | [16] 0.0622 | [17] -0.00165 | [18] 0.0868 | [19] -0.04 | [20] 0.0542

O=C(O)c1nc2cc(Cl)c(Cl)cc2[nH]c1=O
inactive: [1] 0.0263 | [2] 0.026 | [3] 0.0518 | [4] 0.0707

Cn1c(=O)[nH]c2ncn(C)c2c1=O
inactive: [1] 0.132 | [2] 0.0699 | [5] 0.202 | [6] 0.0661 | [3] 0.148 | [4] 0.0595 | [7] 0.102 | [8] 0.106

NC(C(=O)O)C1CC(Cl)=NO1 (configuration not stated)
inactive: [1] 0.0957 | [2] -0.0918 | [3] 0.151 | [4] 0.103
